Measurements reported in article PMC9030733.
Results are given in words; binding and its absence hold for the method and conditions named. Binding seen in cells or lysates may run through a third protein. Some binding calls cover weakened binding; strength is not graded here. For some assays here: Where a sequence is shown, tags or fusion partners need not be part of it. Values belong to the binder of their own block, whether it stands above or below them.

Sequences of proteins named here, by UniProt entry; tags and fusion partners are left off. Residues count along the entry.
UniProt Q62151, residues 23-340: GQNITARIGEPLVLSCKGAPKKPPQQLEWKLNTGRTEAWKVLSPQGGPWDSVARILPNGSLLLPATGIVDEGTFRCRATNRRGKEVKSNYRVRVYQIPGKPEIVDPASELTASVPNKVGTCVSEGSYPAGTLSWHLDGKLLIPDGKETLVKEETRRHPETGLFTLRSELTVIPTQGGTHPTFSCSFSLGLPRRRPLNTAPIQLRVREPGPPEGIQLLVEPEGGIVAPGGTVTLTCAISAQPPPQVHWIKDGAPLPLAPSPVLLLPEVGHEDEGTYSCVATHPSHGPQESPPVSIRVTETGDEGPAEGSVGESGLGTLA

Experiments:
[1] = target: T1, sNKG2D-Fc (mouse) (UniProt O54709); assay: co-IP; Fc fusion protein (bait) and Flag-tagged protein (prey) overexpressed together in AT3 cells; lysate (50 mM Tris HCl pH 8.0, 300 mM NaCl, 1 mM MgCl2, 10 mM KCl, 0.5% NP-40, 10% glycerol) on protein A-Sepharose 2 h, 4 washes; Western blot; for self-association the Fc-fused and the Flag-fused copy of the same receptor
T1 sequence: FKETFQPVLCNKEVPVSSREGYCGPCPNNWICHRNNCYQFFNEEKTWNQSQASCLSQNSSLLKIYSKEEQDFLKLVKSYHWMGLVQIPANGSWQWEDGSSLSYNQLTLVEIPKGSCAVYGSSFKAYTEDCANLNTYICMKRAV

[2] = target: T2, sClec4e-Fc (mouse) (UniProt Q9R0Q8); assay: as above
T2 sequence: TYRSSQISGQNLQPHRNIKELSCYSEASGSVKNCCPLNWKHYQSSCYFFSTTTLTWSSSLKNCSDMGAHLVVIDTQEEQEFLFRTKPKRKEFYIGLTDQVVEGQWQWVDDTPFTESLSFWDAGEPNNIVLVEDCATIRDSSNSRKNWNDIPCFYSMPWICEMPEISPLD

[3] = target: sDectin-1-Flag (mouse) (UniProt Q6QLQ4); assay: as above
[4] = target: sNKG2D-Flag (mouse) (UniProt O54709); assay: as above
[5] = target: T2, sClec4e-Fc (mouse); assay: co-IP; AT3 cells overexpressing tet-inducible Fc fusion protein (1 ug/mL doxycycline); lysate on protein A-Sepharose; Western blot with antibodies to endogenous Nidogen-1 or Hspg2
[6] = target: T3, sDectin-1-Fc (mouse) (UniProt Q6QLQ4); assay: as above
T3 sequence: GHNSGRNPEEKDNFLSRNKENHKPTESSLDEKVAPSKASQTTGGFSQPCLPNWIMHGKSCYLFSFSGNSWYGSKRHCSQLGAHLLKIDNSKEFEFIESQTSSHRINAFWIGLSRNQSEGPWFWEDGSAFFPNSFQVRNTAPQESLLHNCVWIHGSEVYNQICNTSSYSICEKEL

[7] = target: sRAGE-Fc (UniProt Q62151); assay: co-IP; LLC cells overexpressing tet-inducible sRAGE-Fc (1 ug/mL doxycycline); lysate on protein A-Sepharose; Western blot for endogenous Nidogen-1 and Hspg2
[8] = target: T3, sDectin-1-Fc (mouse); assay: co-IP; Fc fusion protein (bait) and Flag-tagged protein (prey) overexpressed together in AT3 cells; lysate (50 mM Tris HCl pH 8.0, 300 mM NaCl, 1 mM MgCl2, 10 mM KCl, 0.5% NP-40, 10% glycerol) on protein A-Sepharose 2 h, 4 washes; Western blot; for self-association the Fc-fused and the Flag-fused copy of the same receptor
[9] = target: sRAGE-Fc (UniProt Q62151); assay: as above

binding [1]: no binding | binding [2]: binds | binding [3]: no binding
B1: sDectin-1-Flag (domain or fragment, UniProt Q6QLQ4 71-244)
chain: T3 sequence

binding [2]: binds | binding [4]: binds
B2: sNKG2D-Flag (domain or fragment, UniProt O54709-1 90-232)
chain: T1 sequence

binding [5]: binds | binding [6]: binds | binding [7]: binds
B3: Nidogen-1 (endogenous) (protein, UniProt P10493 29-1245)
chain: LNRQELFPFGPGQGDLELEAGDDVVSPSLELIGELSFYDRTDITSVYVTTNGIIAMSEPPATEYHPGTFPPSFGSVAPFLADLDTTDGLGNVYYREDLSPFIIQMAAEYVQRGFPEVSFQPTSVVVVTWESVAPYGGPSSSPAEEGKRNTFQAVLASSNSSSYAIFLYPEDGLQFFTTFSKKDESQVPAVVGFSKGLVGFLWKSNGAYNIFANDRESIENLAKSSNAGHQGVWVFEIGSPATAKGVVSADVNLDLDDDGADYEDEDYDLVTSHLGLEDVATPSPSHSPRRGYPDPHNVPRILSPGYEATERPRGVPTERTRSFQLPAERFPQHHPQVIDVDEVEETGVVFSYNTGSQQTCANNRHQCSVHAECRDYATGFCCRCVANYTGNGRQCVAEGSPQRVNGKVKGRIFVGSSQVPVVFENTDLHSYVVMNHGRSYTAISTIPETVGYSLLPLAPIGGIIGWMFAVEQDGFKNGFSITGGEFTRQAEVTFLGHPGKLVLKQQFSGIDEHGHLTISTELEGRVPQIPYGASVHIEPYTELYHYSSSVITSSSTREYTVMEPDQDGAAPSHTHIYQWRQTITFQECAHDDARPALPSTQQLSVDSVFVLYNKEERILRYALSNSIGPVRDGSPDALQNPCYIGTHGCDSNAACRPGPGTQFTCECSIGFRGDGQTCYDIDECSEQPSRCGNHAVCNNLPGTFRCECVEGYHFSDRGTCVAAEDQRPINYCETGLHNCDIPQRAQCIYMGGSSYTCSCLPGFSGDGRACRDVDECQHSRCHPDAFCYNTPGSFTCQCKPGYQGDGFRCMPGEVSKTRCQLEREHILGAAGGADAQRPTLQGMFVPQCDEYGHYVPTQCHHSTGYCWCVDRDGRELEGSRTPPGMRPPCLSTVAPPIHQGPVVPTAVIPLPPGTHLLFAQTGKIERLPLERNTMKKTEAKAFLHIPAKVIIGLAFDCVDKVVYWTDISEPSIGRASLHGGEPTTIIRQDLGSPEGIALDHLGRTIFWTDSQLDRIEVAKMDGTQRRVLFDTGLVNPRGIVTDPVRGNLYWTDWNRDNPKIETSHMDGTNRRILAQDNLGLPNGLTFDAFSSQLCWVDAGTHRAECLNPAQPGRRKVLEGLQYPFAVTSYGKNLYYTDWKTNSVIAMDLAISKEMDTFHPHKQTRLYGITIALSQCPQGHNYCSVNNGGCTHLCLPTPGSRTCRCPDNTLGVDCIERK

binding [2]: binds | binding [8]: binds | binding [9]: binds
B4: Nidogen-1-Flag (protein, UniProt P10493 29-1245)
chain: B3 chain
